1 molecule from US20250147035A1 (QUANTUM SI, published 2025) can be followed below.

Primed or numbered codes have the meaning given here. Where no end group is shown, it is not given here. [ ]: non-standard residue; d: D form. pS = N[C@@H](COP(=O)(O)O)C(=O)O; Biotin′ = not defined here

Assay [1] deals with T1, pSAKLDEESILKQ-Biotin.
T1 peptide: [pS]AKLDEESILKQ-{Biotin′}
Kind of assay: Octet (BLI), fixed reagent concentration.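 Note: octet binding of candidate PTM-specific affinity reagents, each at one fixed concentration, to biotinylated phospho-Thr or phospho-Ser peptides, with unmodified biotinylated peptides serving as controls.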 In general terms: Biolayer interferometry detects binding as a change in optical thickness at a sensor tip.

The target in assay [2] is T2, TAKLDEESILKQ-Biotin.
T2 peptide: TAKLDEESILKQ-{Biotin′}
Kind of assay: Octet (BLI), fixed reagent concentration.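 Note: octet binding of candidate PTM-specific affinity reagents, each at one fixed concentration, to biotinylated phospho-Thr or phospho-Ser peptides, with unmodified biotinylated peptides serving as controls.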

B1: PM16 (Human/PLK1) (other)
chain: not shown
For B1, the “Octet binding assay response” value in assay [1] is 0.6; in assay [2] it was 0.5.
